Measurements from article PMC6919601, “Identification of Plasmodium dipeptidyl aminopeptidase allosteric inhibitors by high throughput screening” (PLoS ONE, 2019).
Screen size: about 110,000 compounds; about 230 (0.21%) showed an effect of 50% or more. Some of the results follow.

molecular target: DPAP1 (Plasmodium falciparum, UniProt Q8IIJ9); test: primary screen, percent inhibition; read by cleavage of a fluorogenic dipeptide substrate; higher = more effect of the substance; design: species or system P. falciparum D10 trophozoite lysates; single well
Sequence (Q8IIJ9 whole entry, looked up): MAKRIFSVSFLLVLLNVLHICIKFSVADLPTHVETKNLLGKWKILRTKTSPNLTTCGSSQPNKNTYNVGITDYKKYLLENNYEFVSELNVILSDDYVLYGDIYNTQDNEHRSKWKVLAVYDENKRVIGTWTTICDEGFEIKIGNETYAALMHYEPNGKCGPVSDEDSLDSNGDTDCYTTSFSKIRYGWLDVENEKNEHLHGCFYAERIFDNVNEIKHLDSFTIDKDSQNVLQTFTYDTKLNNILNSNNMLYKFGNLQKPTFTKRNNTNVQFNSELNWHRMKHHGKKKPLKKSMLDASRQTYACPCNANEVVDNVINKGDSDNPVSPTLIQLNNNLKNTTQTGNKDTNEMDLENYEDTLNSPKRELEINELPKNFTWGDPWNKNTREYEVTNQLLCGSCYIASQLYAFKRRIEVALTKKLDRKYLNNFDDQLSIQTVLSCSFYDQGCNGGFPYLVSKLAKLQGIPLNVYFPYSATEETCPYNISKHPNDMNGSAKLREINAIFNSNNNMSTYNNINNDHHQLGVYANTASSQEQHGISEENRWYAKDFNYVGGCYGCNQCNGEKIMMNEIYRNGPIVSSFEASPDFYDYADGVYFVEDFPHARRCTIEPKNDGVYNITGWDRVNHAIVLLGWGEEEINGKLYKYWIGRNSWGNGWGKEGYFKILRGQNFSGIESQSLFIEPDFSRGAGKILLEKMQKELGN
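Note: 30 min substrate incubation versus DMSO and 10 µM JCP410 controls.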

| SMILES | % Inhibition @ 10 uM [%] |
| --- | --- |
| O=S(=O)(NC1CCN(Cc2ccccc2)CC1)c1ccccc1 | 4.03 |
| Cn1c2c(c(=O)n(C)c1=O)CN(c1ccc3c(c1)OCCO3)CN2 | -15.4 |
| CCC1=C(c2ccc(C)cc2)S(=O)(=O)N=C1N1CCC(C(=O)NCc2ccc(CC)cc2)CC1 | -0.0309 |
| COc1ccc(C2C(C(=O)c3ccccc3)=C(O)C(=O)N2CC(=O)O)c(OC)c1 (stereo not drawn) | -7.45 |
| CC1CC(O)N(C(=O)c2ccccc2)N1Cc1ccccc1 (stereo not drawn) | -1.99 |
| CCOc1ccc(N2C(=O)C3C(c4ccc(F)cc4)OC4(C(=O)c5ccccc5C4=O)C3C2=O)cc1 (stereo not drawn) | -4.6 |
| O=C(NCCSCc1ccccc1)c1cc(S(=O)(=O)N2CCOCC2)ccc1F | -0.256 |
| COc1ccc(-c2c(C(C)=O)c(C)nc3sc4c(Cl)nc(C)nc4c23)cc1 | 1.27 |
| c1sc2c(c1CN1CCC3(CC1)OCCO3)CCCC2 | 2.03 |
| COc1ccc(/N=c2/sc3ccccc3n2C)cc1 | 1.59 |
| NC(=O)c1c(NC(=O)c2ccco2)sc2c1CCCCCC2 | 5.69 |
| Cc1nc2c(c(C)nn2C)c(C)c1CCC(=O)NCc1cccnc1 | -6.09 |
| CC1CCc2c(sc(NC(=O)c3cc4n(n3)C(C(F)(F)F)CC(c3ccco3)N4)c2C(N)=O)C1 (stereo not drawn) | 0.0289 |
| Cn1c2c(c(=O)n(C)c1=O)C(c1cccc(O)c1)C(C#N)=C(N)O2 (stereo not drawn) | -0.128 |
| O=c1oc2ccc(Br)cc2cc1-c1nc(-c2cccnc2)no1 | 5.05 |
| NC(=O)c1nn2c(C(F)(F)F)cc(-c3cccs3)nc2c1Cl | -1.66 |
| COc1cc2c3c(c1OC)C1(C=CC(=O)C=C1)CC3N(C)CC2 (stereo not drawn) | 5.3 |
| CCOc1ccc(C(=O)C2=C(O)C(=O)N(CCOC)C2c2ccccc2)cc1Cl (stereo not drawn) | -1.89 |
| COc1cccc(N2C(=O)CC(N3CCN(Cc4ccc5c(c4)OCO5)CC3)C2=O)c1 (stereo not drawn) | -0.992 |
| COc1cc(C=C2C(=O)NC(=O)NC2=O)cc(Cl)c1OCCOc1ccccc1 | -0.467 |
| O=C(NCC1CCCO1)c1ccc(-c2ccccc2)cc1 (stereo not drawn) | -5.16 |
| Cc1ccc(N2CCN(C3CCSC3)CC2)cc1 (stereo not drawn) | -1.75 |
| CCOc1ccc(N(CC(=O)NCc2ccccc2C)S(C)(=O)=O)cc1 | -1.43 |
| COc1ccc(C)cc1NCc1ccc(C(F)(F)F)cc1 | -6.08 |
| CCOC(=O)N1CCN(C(=O)c2sc3nc(C)nc(N4CCCCC4)c3c2C)CC1 | -3.93 |
| COc1ccc(CN2CCN(Cc3ccccc3F)CC2)cc1OC | -9.4 |
| CCC(C)NC(=O)CSc1nc2c(sc3ccccc32)c(=O)n1CCCN1CCOCC1 (stereo not drawn) | 4.65 |
